Measured values reported in the supplement of paper PMC8728848.
The other results are listed elsewhere or left out.

Columns and labels:
Test in all cases: glycan array binding signal (z-score within array); higher = stronger binding
Conditions in all cases: glycan notation: IUPAC condensed, linker removed
Fuc(a1-2)Gal = biological target: Fuc(a1-2)Gal
Summary of the method: (§1)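 Columns mapping to the same glycan were averaged after glycan names were converted to IUPAC-condensed notation. The data come from 3228 arrays in the Consortium for Functional Glycomics database, limited to those with an available protein sequence. Binding is reported as a within-array Z-score averaged across arrays of one protein sequence and across linkers.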

Fuc(a1-2)Gal(b1-3)GalNAc = biological target: Fuc(a1-2)Gal(b1-3)GalNAc
Summary of the method: as §1

[1] = biological target: Fuc(a1-2)Gal(b1-3)GalNAc(a1-3)[Fuc(a1-2)]Gal(b1-4)Glc
Summary of the method: as §1

[2] = biological target: Fuc(a1-2)Gal(b1-3)GalNAc(a1-3)[Fuc(a1-2)]Gal(b1-4)GlcNAc
Summary of the method: as §1

[3] = biological target: Fuc(a1-2)Gal(b1-3)GalNAc(b1-3)Gal
Summary of the method: as §1

[4] = biological target: Fuc(a1-2)Gal(b1-3)GalNAc(b1-3)Gal(a1-4)Gal(b1-4)Glc
Summary of the method: as §1

[5] = biological target: Fuc(a1-2)Gal(b1-3)GalNAc(b1-4)[Neu5Ac(a2-3)]Gal(b1-4)Glc
Summary of the method: as §1

Fuc(a1-2)Gal(b1-3)GlcNAc = biological target: Fuc(a1-2)Gal(b1-3)GlcNAc
Summary of the method: as §1

[6] = biological target: Fuc(a1-2)Gal(b1-3)GlcNAc(b1-2)Man(a1-3)[Fuc(a1-2)Gal(b1-3)GlcNAc(b1-2)Man(a1-6)]Man(b1-4)GlcNAc(b1-4)GlcNAc
Summary of the method: as §1

[7] = biological target: Fuc(a1-2)Gal(b1-3)GlcNAc(b1-2)Man(a1-3)[Fuc(a1-2)Gal(b1-3)GlcNAc(b1-2)Man(a1-6)]Man(b1-4)GlcNAc(b1-4)[Fuc(a1-6)]GlcNAc
Summary of the method: as §1

[8] = biological target: Fuc(a1-2)Gal(b1-3)GlcNAc(b1-3)Gal(b1-4)Glc
Summary of the method: as §1

[9] = biological target: Fuc(a1-2)Gal(b1-3)GlcNAc(b1-3)GalNAc
Summary of the method: as §1

[10] = biological target: Fuc(a1-2)Gal(b1-3)GlcNAc(b1-3)[Fuc(a1-2)Gal(b1-3)GlcNAc(b1-6)]GalNAc
Summary of the method: as §1

[11] = biological target: Fuc(a1-2)Gal(b1-3)GlcNAc(b1-3)[Gal(b1-4)GlcNAc(b1-6)]Gal(b1-4)Glc
Summary of the method: as §1

[12] = biological target: Fuc(a1-2)Gal(b1-3)GlcNAc(b1-3)[Neu5Ac(a2-6)Gal(b1-4)GlcNAc(b1-6)]Gal(b1-4)Glc
Summary of the method: as §1

[13] = biological target: Fuc(a1-2)Gal(b1-3)GlcNAc6S
Summary of the method: as §1

[14] = biological target: Fuc(a1-2)Gal(b1-3)[Fuc(a1-4)]GlcNAc
Summary of the method: as §1

[15] = biological target: Fuc(a1-2)Gal(b1-3)[Fuc(a1-4)]GlcNAc(b1-2)Man(a1-3)[Fuc(a1-2)Gal(b1-3)[Fuc(a1-4)]GlcNAc(b1-2)Man(a1-3)]Man(b1-4)GlcNAc(b1-4)GlcNAc
Summary of the method: as §1

[16] = biological target: Fuc(a1-2)Gal(b1-3)[Fuc(a1-4)]GlcNAc(b1-2)Man(a1-3)[Fuc(a1-2)Gal(b1-3)[Fuc(a1-4)]GlcNAc(b1-2)Man(a1-6)]Man(b1-4)GlcNAc(b1-4)[Fuc(a1-6)]GlcNAc(b1-4)[Fuc(a1-6)]GlcNAc
Summary of the method: as §1

[17] = biological target: Fuc(a1-2)Gal(b1-3)[Fuc(a1-4)]GlcNAc(b1-3)[Fuc(a1-3)[Gal(b1-4)]GlcNAc(b1-6)]Gal(b1-4)Glc
Summary of the method: as §1

[18] = biological target: Fuc(a1-2)Gal(b1-3)[Fuc(a1-4)]GlcNAc(b1-3)[Gal(b1-4)GlcNAc(b1-6)]Gal(b1-4)Glc
Summary of the method: as §1

Fuc(a1-2)Gal(b1-4)Glc = biological target: Fuc(a1-2)Gal(b1-4)Glc
Summary of the method: as §1

Fuc(a1-2)Gal(b1-4)Glc6S = biological target: Fuc(a1-2)Gal(b1-4)Glc6S
Summary of the method: as §1

Fuc(a1-2)Gal(b1-4)GlcNAc = biological target: Fuc(a1-2)Gal(b1-4)GlcNAc
Summary of the method: as §1

[19] = biological target: Fuc(a1-2)Gal(b1-4)GlcNAc(b1-2)Man
Summary of the method: as §1

[20] = biological target: Fuc(a1-2)Gal(b1-4)GlcNAc(b1-2)Man(a1-3)[Fuc(a1-2)Gal(b1-4)GlcNAc(b1-2)Man(a1-6)]Man(b1-4)GlcNAc(b1-4)GlcNAc
Summary of the method: as §1

[21] = biological target: Fuc(a1-2)Gal(b1-4)GlcNAc(b1-2)Man(a1-3)[Fuc(a1-2)Gal(b1-4)GlcNAc(b1-2)Man(a1-6)]Man(b1-4)GlcNAc(b1-4)[Fuc(a1-6)]GlcNAc
Summary of the method: as §1

[22] = biological target: Fuc(a1-2)Gal(b1-4)GlcNAc(b1-2)[Fuc(a1-2)Gal(b1-4)GlcNAc(b1-4)]Man(a1-3)[Fuc(a1-2)Gal(b1-4)GlcNAc(b1-2)Man(a1-6)]Man(b1-4)GlcNAc(b1-4)GlcNAc
Summary of the method: as §1

[23] = biological target: Fuc(a1-2)Gal(b1-4)GlcNAc(b1-3)Gal(b1-4)GlcNAc
Summary of the method: as §1

[24] = biological target: Fuc(a1-2)Gal(b1-4)GlcNAc(b1-3)Gal(b1-4)GlcNAc(b1-2)Man(a1-3)[Fuc(a1-2)Gal(b1-4)GlcNAc(b1-3)Gal(b1-4)GlcNAc(b1-2)Man(a1-6)]Man(b1-4)GlcNAc(b1-4)GlcNAc
Summary of the method: as §1

B1: Clec18C (Homo sapiens) (protein)
chain: MLHPETSPGRGHLLAVLLALLGTAWAEVWPPQLQEQAPMAGALNRKESFLLLSLHNRLRSWVQPPAADMRRLDWSDSLAQLAQARAALCGTPTPSLASGLWRTLQVGWNMQLLPAGLVSFVEVVSLWFAEGQRYSHAAGECARNATCTHYTQLVWATSSQLGCGRHLCSAGQAAIEAFVCAYSPRGNWEVNGKTIVPYKKGAWCSLCTASVSGCFKAWDHAGGLCEVPRNPCRMSCQNHGRLNISTCHCHCPPGYTGRYCQVRCSLQCVHGRLREEECSCVCDIGYGGAQCATKVHFPFHTCDLRIDGDCFMVSSEADTYYRARMKCQRKGGVLAQIKSQKVQDILAFYLGRLETTNEVIDSDFETRNFWIGLTYKTAKDSFRWATGEHQAFTSFAFGQPDNHGFGNCVELQASAAFNWNNQRCKTRNRYICQFAQEHISRWGPGS
glycan array binding signal (z-score) (Fuc(a1-2)Gal): -0.469 | glycan array binding signal (z-score) (Fuc(a1-2)Gal(b1-3)GalNAc): 0.239 | glycan array binding signal (z-score) [1]: -0.445 | glycan array binding signal (z-score) [2]: -0.618 | glycan array binding signal (z-score) [3]: -0.019 | glycan array binding signal (z-score) [4]: -0.588 | glycan array binding signal (z-score) [5]: 0.857 | glycan array binding signal (z-score) (Fuc(a1-2)Gal(b1-3)GlcNAc): -0.404 | glycan array binding signal (z-score) [6]: 3.46 | glycan array binding signal (z-score) [7]: -0.43 | glycan array binding signal (z-score) [8]: -0.182 | glycan array binding signal (z-score) [9]: -0.529 | glycan array binding signal (z-score) [10]: 1.73 | glycan array binding signal (z-score) [11]: -0.165 | glycan array binding signal (z-score) [12]: -0.242 | glycan array binding signal (z-score) [13]: 2.16 | glycan array binding signal (z-score) [14]: -0.598 | glycan array binding signal (z-score) [15]: 0.055 | glycan array binding signal (z-score) [16]: -0.486 | glycan array binding signal (z-score) [17]: 1.43 | glycan array binding signal (z-score) [18]: -0.503 | glycan array binding signal (z-score) (Fuc(a1-2)Gal(b1-4)Glc): -0.572 | glycan array binding signal (z-score) (Fuc(a1-2)Gal(b1-4)Glc6S): -0.46 | glycan array binding signal (z-score) (Fuc(a1-2)Gal(b1-4)GlcNAc): -0.439 | glycan array binding signal (z-score) [19]: -0.438 | glycan array binding signal (z-score) [20]: -0.195 | glycan array binding signal (z-score) [21]: -0.304 | glycan array binding signal (z-score) [22]: -0.496 | glycan array binding signal (z-score) [23]: -0.426 | glycan array binding signal (z-score) [24]: 0.124
